For part of its entries the source gives two or more results. Only these are listed. There may be further records. Results that share an entry are repeats across runs, samples, wells, individuals or studies. Counts like (3×) give the number of equal values in this list. Dates in brackets are months of testing.
Test system: NCI-H1417 complex spheroids, growth % test/control
Assay: Anticancer human tumor NCI-H1417 cell line growth inhibition [Asc];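 further: spheroids exposed to compounds for 7 days; 100% = DMSO vehicle control wells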
Details: stronger effect = lower value
Description: Multicellular complex tumor spheroid response to apoptosis pathway targeting inhibitors Alrizomadlin, Pelcitoclax, and Dasminapant in combination with a variety of drugs and investigational agents in selected tumor cell lines
The MDM2 inhibitor alrizomadlin, the Bcl-2/Bcl-xL inhibitor pelcitoclax, and the IAPs inhibitor dasminapant were evaluated both individually and in combination with standard of care and investigational anticancer small molecules within a complex spheroid model of solid tumors. . Complex spheroids include a stromal component modeled by human endothelial cells (HUVEC) and fibroblasts modeled by human mesenchymal stem cells (MSCs). The concentration ranges selected for each drug and investigational agent were based upon clinically achievable concentrations if the clinical Cmax of the agent was known.
Compounds. […] If the clinical Cmax for an agent had not been determined, the highest concentration tested was 10 microM. […]

SMILES	viability, T/C (compound alone 0.1 µM)	viability, T/C (compound alone 0.949 µM)
CNC(C)C(=O)NC1CN(S(=O)(=O)c2cccc(S(=O)(=O)N3CCC4CCC(C(=O)NC(c5ccccc5)c5ccccc5)N4C(=O)C(NC(=O)C(C)NC)C3)c2)CCC2CCC(C(=O)NC(c3ccccc3)c3ccccc3)N2C1=O (configuration not stated)	109, 104, 86, 98.7, 99.2, 94.9, 91, 94.2, 99.5, 102, 82.6, 103, 92.6% [2022-10] and 99.2% [2022-11]	–
CCN1C(C(=O)NC23CCC(C(=O)O)(CC2)CC3)C(c2cccc(Cl)c2F)C2(C(=O)Nc3cc(Cl)ccc32)C12CCCCC2 (configuration not stated)	–	91, 95.5, 79.4, 98.6, 96.9, 86.7, 95.2, 88.4, 101 (2×), 96.3, 96.4, 88.2, 100, 117%

— PubChem BioAssay AID1963440 (Molecular Pharmacology Branch, DTP, NCI, 2024)
